Assay results taken from PubChem BioAssay AID588591 (National Center for Advancing Translational Sciences (NCATS), 2011).
The whole screen tested about 390,000 compounds, of which about 4,700 (1.2%) were called active. The shares of active, inactive and inconclusive entries below differ from those in the screen. Calls follow the shape of the dose curve; as a rule, active = well fitted inhibition curve with a large enough effect; inconclusive = small, poorly fitted or top-dose-only effect, or another doubt; inactive = no such curve, though single readings can be large or run the other way. Where the call is inconclusive, the potency comes from a doubtful curve fit.

These compounds were tested against DNA polymerase eta (Homo sapiens) (UniProt Q9Y253) (assay: qHTS for Inhibitors of Polymerase Eta). Details: recombinant Pol eta, fluorescent DNA replication assay; series mostly up to 114 µM; activity change, negative = inhibition: at the top concentration.
Sequence of UniProt Q9Y253 (Q9Y253 whole entry, looked up): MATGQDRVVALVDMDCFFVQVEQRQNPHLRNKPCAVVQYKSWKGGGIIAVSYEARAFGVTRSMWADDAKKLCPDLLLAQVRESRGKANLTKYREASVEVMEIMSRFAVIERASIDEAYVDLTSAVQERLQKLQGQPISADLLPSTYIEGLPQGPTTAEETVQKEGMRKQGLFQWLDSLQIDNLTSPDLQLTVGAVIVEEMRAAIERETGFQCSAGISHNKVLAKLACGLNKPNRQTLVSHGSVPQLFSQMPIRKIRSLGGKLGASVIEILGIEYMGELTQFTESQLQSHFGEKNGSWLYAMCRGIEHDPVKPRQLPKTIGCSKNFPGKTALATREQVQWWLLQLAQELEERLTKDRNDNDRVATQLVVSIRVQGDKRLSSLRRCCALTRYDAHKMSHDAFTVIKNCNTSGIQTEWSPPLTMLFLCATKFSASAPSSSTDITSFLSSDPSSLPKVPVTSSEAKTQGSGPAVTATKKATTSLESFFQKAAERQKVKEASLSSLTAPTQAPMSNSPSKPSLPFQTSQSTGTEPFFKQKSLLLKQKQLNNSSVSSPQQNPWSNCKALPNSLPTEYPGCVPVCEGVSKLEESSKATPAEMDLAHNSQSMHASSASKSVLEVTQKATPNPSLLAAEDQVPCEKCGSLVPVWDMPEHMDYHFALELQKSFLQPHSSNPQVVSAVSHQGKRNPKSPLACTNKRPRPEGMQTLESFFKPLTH
Outline: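 Pol eta (10 nM) was preincubated with compounds for 15 min at room temperature, after which fluorescent replication substrate (50 nM final) was added to start the reaction. Fluorescence was read kinetically at 0 and 10 min.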
% is scaled to controls: 0 for no effect and ±100 for the full control effect; potency is read from the fitted curve at half-maximal effect; tags tell the direction and shape of the fitted curve.

SMILES	activity change, negative = inhibition	Potency
O=c1c2ccccc2nc2sc(Nc3cccc(Cl)c3)nn12	inactive: -0.0987%	–
CC[n+]1c(/C=C/C=C/N(C(C)=O)c2ccccc2)sc2cc(OC)ccc21	–	inconclusive: 15.8 µM [inhibitor, full curve, poor fit]
Cc1cccc(OCc2nc(C#N)c(NCc3ccc4c(c3)OCO4)o2)c1	–	inconclusive: 50.1 µM [inhibitor, partial curve, poor fit]
CS(=O)(=O)C1=NSC2=NC(=O)/C(=C\c3ccc(OS(=O)(=O)c4ccccc4)cc3)C(=N)N21	–	active: 50.1 µM
CCN(CC)CCn1c2ccccc2c2cnc(N=CN(C)C)c(C#N)c21	–	inconclusive: 25.1 µM [inhibitor, single point]
COc1ccc(Br)cc1/C=C(\C(=O)O)c1ccc(S(=O)(=O)N2CCCC2)s1	–	active: 22.4 µM
COc1ccc2c(CC(=O)Nc3ccc4nc(N5CCOCC5)sc4c3)coc2c1	–	inconclusive: 11.2 µM [inhibitor, partial curve, poor fit]
Nc1ccc(N2CCOCC2)c2nonc12	–	active: 79.4 µM
O=C1CSC(=S)N1N=Cc1ccc2c(c1)OCO2	inactive: 4.43%	–
Nc1c(Cl)cc(Cl)cc1C(=O)OCC(=O)NC1CC1	–	inconclusive: 28.2 µM [inhibitor, single point]
O=C(Cn1ccc(=O)[nH]c1=O)Nc1ccc(O)c([N+](=O)[O-])c1	–	inconclusive: 20 µM [inhibitor, full curve]
COc1ccc(C(=O)/C=C/c2ccc(OCc3ccccc3)cc2)cc1CSCC(=O)O	–	active: 44.7 µM
CN(C(=O)Nc1ccccc1)C1CCCc2ccccc21 (stereo not given)	inactive: -22.5%	–
CC(C)c1ccc(Cc2cn3cc(-c4cc5ccccc5oc4=O)nc3s2)cc1	inactive: -16.4%	–
CCn1c(NN)nc2sc3c(c2c1=O)CCC3	–	inconclusive: 15.8 µM [inhibitor, partial curve, poor fit]
O=C(Cc1cccs1)NCCc1csc(-c2ccccc2)n1	–	inconclusive: 22.4 µM [inhibitor, full curve]
CC(C)(C)c1cc(-c2nc(N)nc(N)n2)c(O)c(C(C)(C)C)c1	–	inconclusive: 50.1 µM [inhibitor, partial curve, poor fit]
COc1ccc(CCNc2ncnc3c2[nH]c2cc(OC)c(OC)cc23)cc1OC	–	inconclusive: 50.1 µM [inhibitor, partial curve]
CCCc1nc2ccccc2c(C(=O)OC(C)C(=O)NCc2ccc3c(c2)OCO3)c1CC (stereo not given)	–	inconclusive: 79.4 µM [inhibitor, partial curve, poor fit]
NC(=O)CSc1nnc(NC(=O)C2CC(=O)N(c3ccc(F)cc3)C2)s1 (stereo not given)	–	active: 50.1 µM
CS(=O)(=O)N1CCN(c2cnn(-c3ccccc3)c(=O)c2Cl)CC1	–	inconclusive: 15.8 µM [inhibitor, partial curve, poor fit]
Cc1ccc(NC(=O)C(=O)NCc2ccc(/C=C(/C#N)C(=O)NCc3cccnc3)o2)cc1C	–	inconclusive: 39.8 µM [inhibitor, partial curve, poor fit]
Cc1cccc(C(=O)OC(C)C(=O)N2CCc3ccccc3C2)c1C (stereo not given)	–	inconclusive: 100 µM [inhibitor, partial curve, poor fit]

SMILES	activity change, negative = inhibition	Potency
CCc1ccccc1NC(=O)CN1C(=O)CCSc2ccc(S(=O)(=O)N3CCCC3)cc21	inactive: -6.18%	–
O=C(O)c1ccc(-c2ccc(/C=c3/sc4nc5ccccc5n4c3=O)o2)cc1Cl	–	active: 1.58 µM
COc1ccc(Cl)cc1NC(=O)CN(C)CC(=O)NC(C)c1ccccc1 (stereo not given)	–	inconclusive: 89.1 µM [inhibitor, partial curve, poor fit]
Cn1cc(/C=C/c2cc[n+](C)cc2)c2cc(F)ccc21	–	inconclusive: 50.1 µM [inhibitor, partial curve, poor fit]
O=C1NN(c2ccccc2)C(=O)/C1=C/c1ccc(Sc2cccc3ccccc23)o1	–	active: 28.2 µM
O=c1ccc2c(-c3ccccc3)c3ccc(O)cc3oc-2c1	–	active: 39.8 µM
O=C(CSc1nnc(-c2c[nH]c3ccccc23)n1CC1CCCO1)Nc1ccc2c(c1)OCCO2 (stereo not given)	inactive: -4.1%	–
C=CCc1cc(/C=C2/NC(=S)NC2=O)cc(OC)c1O	–	inconclusive: 12.6 µM [inhibitor, full curve, poor fit]
CCOC(=O)c1c2c(n(C)c1C)C(=O)C(=O)c1ccc(Br)cc1-2	–	inconclusive: 0.708 µM [inhibitor, full curve]
Cc1ccc(NC(=O)CCc2nnc(SCC(=O)Nc3ccccc3C)n2C)cc1Cl	inactive: -0.49%	–
COc1ccc(NC(=O)CN(C)C2CCCCC2)c([N+](=O)[O-])c1	–	inconclusive: 79.4 µM [inhibitor, partial curve, poor fit]
O=C(NCC(c1cccnc1)N1CCN(Cc2ccccc2)CC1)C(=O)Nc1cccc(Cl)c1 (stereo not given)	inactive: -1.33%	–
O=C(O)c1cc2nc(-c3ccc(F)cc3)cc(C(F)(F)F)n2n1	–	inconclusive: 22.4 µM [inhibitor, single point]
O=C1NC(=Nc2ccccc2)S/C1=C\C=C\c1ccco1	–	active: 10 µM
COc1ccc(CCNc2nc3cc(OC)c(OC)cc3c3nc(-c4ccccc4)nn23)cc1OC	inactive: -14.8%	–
Cc1ccc(-c2csc(NC(=O)c3ccc([N+](=O)[O-])o3)n2)cc1	–	active: 79.4 µM
[S-]c1nnc(-c2ccc(Br)cc2)n1-c1ccccc1.[Zn+2]	inactive: 5.55%	–
O=C(/C=C/c1ccc([N+](=O)[O-])cc1)Oc1ccc(/C=N/NC(=O)c2ccncc2)cc1	–	inconclusive: 3.55 µM [inhibitor, full curve, poor fit]
CC1=NN(c2ccccc2)C(=O)/C1=C\c1c(C)[nH]n(-c2ccccc2)c1=O	inactive: -11.2%	–
O=C(CNC(=O)c1ccc(Oc2ccccc2)cc1)OC1CCCCC1=O (stereo not given)	–	inconclusive: 39.8 µM [inhibitor, partial curve, poor fit]
CC(C)n1nnnc1SCC(=O)NCc1ccco1	–	inconclusive: 35.5 µM [inhibitor, single point]
Cc1cc(/C=N/n2c(COc3ccccc3)nc3ccccc3c2=O)c(O)c([N+](=O)[O-])c1	–	inconclusive: 28.2 µM [inhibitor, partial curve, poor fit]
